Results taken from publication PMC4336329 (PLoS ONE, 2015).
About 14,000 (4.5%) of roughly 310,000 compounds showed an effect of 50% or more. Effects have a minus sign here. Some of the results follow.

molecular target: human ether-à-go-go-related gene (hERG) potassium channel (human, UniProt Q12809); test: primary screen, population patch clamp on CHO cells stably expressing hERG
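Note: peak tail current of the secondary pulse compared with the same well before compound.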

Chain of human ether-à-go-go-related gene (hERG) potassium channel (Q12809 whole entry, looked up): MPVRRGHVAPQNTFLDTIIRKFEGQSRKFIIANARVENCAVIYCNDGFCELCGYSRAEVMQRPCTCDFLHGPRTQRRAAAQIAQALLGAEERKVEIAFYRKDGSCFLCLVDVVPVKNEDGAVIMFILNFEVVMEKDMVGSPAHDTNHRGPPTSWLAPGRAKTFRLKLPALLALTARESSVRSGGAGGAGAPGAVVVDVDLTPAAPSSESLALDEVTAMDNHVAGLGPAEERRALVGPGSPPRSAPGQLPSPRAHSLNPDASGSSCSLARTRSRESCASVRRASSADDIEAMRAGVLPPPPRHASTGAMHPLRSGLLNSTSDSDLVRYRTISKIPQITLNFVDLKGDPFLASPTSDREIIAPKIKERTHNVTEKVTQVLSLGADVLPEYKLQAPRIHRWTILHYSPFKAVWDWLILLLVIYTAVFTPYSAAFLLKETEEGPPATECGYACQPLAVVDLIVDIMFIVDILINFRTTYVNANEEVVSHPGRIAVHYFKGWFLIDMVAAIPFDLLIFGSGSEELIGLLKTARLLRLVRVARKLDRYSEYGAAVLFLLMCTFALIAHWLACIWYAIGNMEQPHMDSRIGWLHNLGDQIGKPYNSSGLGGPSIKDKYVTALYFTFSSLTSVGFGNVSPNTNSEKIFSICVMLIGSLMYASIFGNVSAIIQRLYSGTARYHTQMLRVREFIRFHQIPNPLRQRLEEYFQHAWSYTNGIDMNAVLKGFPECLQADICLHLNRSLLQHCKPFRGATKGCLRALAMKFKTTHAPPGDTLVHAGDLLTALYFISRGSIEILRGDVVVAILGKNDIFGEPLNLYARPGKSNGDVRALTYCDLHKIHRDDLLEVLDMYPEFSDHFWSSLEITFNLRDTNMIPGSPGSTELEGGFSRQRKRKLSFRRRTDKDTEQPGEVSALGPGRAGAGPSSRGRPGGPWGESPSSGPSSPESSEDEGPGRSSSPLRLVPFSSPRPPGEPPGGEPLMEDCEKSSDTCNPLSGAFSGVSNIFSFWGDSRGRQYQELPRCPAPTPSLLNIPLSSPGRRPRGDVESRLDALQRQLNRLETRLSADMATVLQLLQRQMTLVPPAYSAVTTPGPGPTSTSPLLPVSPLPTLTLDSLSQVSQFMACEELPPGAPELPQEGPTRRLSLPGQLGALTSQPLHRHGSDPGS

| Compound | hERG current change (%, negative = inhibition) at 10uM [%] |
| --- | --- |
| CC(C(=O)c1c[nH]c2ccccc12)N1CCSCC1 (centres unmarked) | -1.66 |
| CCOc1cc(C2Nc3cccc4cccc(c34)N2)ccc1O | 2.24 |
| COc1cccc(C2c3[nH]c4ccccc4c3C[C@H]3C(=O)N(CCCOC(C)C)CC(=O)N23)c1 (some centres unmarked) | 24.4 |
| COc1cc2c(cc1OC)C(c1cc(OC)c(OC)cc1[N+](=O)[O-])N(C(C)=O)CC2 (centres unmarked) | 26 |
| NNC(=O)c1cccc(COc2cccc(Br)c2)c1 | -5.93 |
| O=C(Nc1ccc2c(c1)OCO2)C1CCCN1C(=O)Nc1ccccc1 (centres unmarked) | 2.04 |
| COc1ccc(NC(=O)C2Cc3ccccc3CN2C(=O)c2ccco2)cc1 (centres unmarked) | -30.4 |
| CNc1c(NS(=O)(=O)c2ccc(C3CCCCC3)cc2)c(=O)oc2ccccc12 | 21.3 |
| O=C(NC(=S)N1CCCc2ccccc21)c1ccc(Br)cc1 | 14.2 |
| Nn1c(SCC(=O)NC2CCCCC2)nnc1-c1ccc(Cl)cc1 | -5.97 |
| CC[N+](CC)(CC#CCO)CC#Cc1ccccc1.[Br-] | 33.7 |
| Cc1noc(NS(=O)(=O)c2ccc(N3CC(O)=C(c4ccccc4)C3=N)cc2)c1C | 20.5 |
| CCCn1nc(C(=O)Nc2nc3ccccc3[nH]2)c2ccccc2c1=O | -15 |
| Cc1ccc2oc3nc(C)c(C(=O)O)cc3c(=O)c2c1 | -0.671 |
| Cc1c(-c2ccccc2)oc2c(C(=O)N3CCN(c4ccccc4F)CC3)cccc2c1=O | -8.63 |
| Cc1[nH]c(=O)[nH]c(=O)c1S(=O)(=O)Nc1ccc(Cl)c([N+](=O)[O-])c1 | 19.5 |
| CNC(=O)C1CC(=O)N(CCc2ccc(OC)cc2)C(=Nc2ccc(OC)cc2)S1 (centres unmarked) | -9.54 |
| COc1ccc(-c2cc(-c3cccs3)c(C#N)c(SCC(=O)NCc3ccco3)n2)cc1 | 5.02 |
| CCN(CC)S(=O)(=O)c1ccc(N2CCCC2)c(NC(=O)Cc2ccc(OC)cc2)c1 | -7.53 |
| O=C1NC2(CCCCC2)C(=O)N1c1cccc(Cl)c1 | 12.5 |
| O=C(O)CNC(=O)c1ccc(NS(=O)(=O)c2ccc3ccccc3c2)cc1 | 19.1 |
| COc1ccc(-c2oc3ccccc3c2C(=O)Oc2ccccc2)cc1 | 19.2 |
| Cc1ccc2c(c1)N(CC(=O)N1CCCC1)C(=O)C(C)O2 (centres unmarked) | 19.4 |
| CCOC(=O)c1c(C)[nH]c(C(=O)CN2C(=O)NC(C)(c3ccc(C)cc3)C2=O)c1C (centres unmarked) | 4.54 |
| CCOc1ccc(N(CC(=O)Nc2c(C)n(C)n(-c3ccccc3)c2=O)S(=O)(=O)c2ccc(F)cc2)cc1 | -17.6 |
| COc1cc(C(=O)NCc2nnc(SCC(=O)NC3CCCCC3)o2)cc(OC)c1OC | 13.6 |
| CCOC(=O)Cn1nc(/C=C/c2ccc(OC)cc2)ccc1=O | -36.3 |

| Compound | hERG current change (%, negative = inhibition) at 10uM [%] |
| --- | --- |
| COCc1ccc2oc(C(=O)O)cc2c1 | 6.1 |
| COc1ccc(N(CC(=O)NCc2ccc(C)cc2)S(=O)(=O)c2c(C)nn(C)c2C)cc1 | 5.17 |
| CC(C)COP(=O)(c1ccc(N(C)C)cc1)C(O)c1ccncc1 (centres unmarked) | -3.58 |
| CCOC(=O)c1c(C)[nH]c(C)c1C(=O)COC(=O)[C@@H]1CCCN1S(=O)(=O)c1ccc(Cl)cc1 | -24.5 |
| CCOc1ccc(N(CC(=O)Nc2ccccc2C(=O)NC(C)CC)S(C)(=O)=O)cc1 (centres unmarked) | -13.3 |
| C=CCNC(=S)NNC(=O)c1cc(C)nc2ccccc12 | 14.7 |
| Cn1c(=O)c(=O)n(C)c2cc(N3CCCCC3)c(NS(=O)(=O)c3ccc([N+](=O)[O-])cc3)cc21 | -50.6 |
| CN(C(=O)COC(=O)c1cccc(NS(=O)(=O)c2ccc(F)c(F)c2)c1)C1CCS(=O)(=O)C1 (centres unmarked) | 29.4 |
| COc1ccc([C@H]2CC(=O)C=C(c3ccc(OC)cc3OC)C2)cc1 | 12.9 |
| O=C1c2c([N+](=O)[O-])cc([N+](=O)[O-])cc2S(=O)N1Cc1ccccc1 (centres unmarked) | 17.9 |
| COc1ccc(C(=O)N/C(=C\c2cccc3ccccc23)C(=O)N2CCN(C)CC2)cc1OC | -50.6 |
| Cc1ccc(C(=O)NCCNC(=O)COc2ccc(Cl)cc2)cn1 | 2.76 |
| CC1CCCCN1C(=O)CCS(=O)(=O)c1cccc2nonc12 (centres unmarked) | -0.528 |
| CC(=O)Nc1ccc(S(=O)(=O)N2CCC(C(=O)c3ccc(F)cc3)CC2)cc1 | -34.6 |
| Cc1ccc(NC(=O)Nc2cccs2)nc1 | 4.76 |
| O=C(/C=C\N1CCOCC1)c1ccc(Br)cc1 | -6.49 |
| COc1ccccc1OCCSc1nc2ccccc2n1CC(O)CO (centres unmarked) | 13.9 |
| COc1ccc(S(=O)(=O)Nc2cccc(-c3ccc4nncn4n3)c2)cc1 | 16.3 |
| CN1C(=O)C(O)(CC(=O)/C=C/c2ccco2)c2ccccc21 (centres unmarked) | 14.3 |
| O=C1NC(=S)N(C2CC2)C(=O)/C1=C/c1ccc2c(c1)CCN2CCCCl | 6.53 |
| O=C(O)c1ccc(N2CC3CC(C2)c2cccc(=O)n2C3)c(NS(=O)(=O)c2cccc(C(F)(F)F)c2)c1 (centres unmarked) | 3.22 |
| O=[N+]([O-])c1ccccc1NCc1ccc(Cl)cc1 | -19.5 |
| Nc1nc2ccccc2n1/N=C/c1ccc2c(c1)OCO2 | 24.6 |
| S=C(c1ccccc1)N(c1ccccc1)c1ccccc1 | 7.21 |
| Cn1c(C(=O)N2CCN(Cc3ccc4c(c3)OCO4)CC2)cc2c(=O)n(C)c3ccccc3c21 | -9.15 |
| Cc1ccc(CN2CC(C(=O)N(Cc3nnc(-c4ccccc4Cl)o3)C3CC3)CC2=O)cc1 (centres unmarked) | -45.2 |
